The source of these data is article PMC4007762.

For test [1], the target named is T1, p120 catenin, endogenous (human cell lines) (human (endogenous in KM12C, HEK 293T, HCT116)) (UniProt O60716).
T1 sequence: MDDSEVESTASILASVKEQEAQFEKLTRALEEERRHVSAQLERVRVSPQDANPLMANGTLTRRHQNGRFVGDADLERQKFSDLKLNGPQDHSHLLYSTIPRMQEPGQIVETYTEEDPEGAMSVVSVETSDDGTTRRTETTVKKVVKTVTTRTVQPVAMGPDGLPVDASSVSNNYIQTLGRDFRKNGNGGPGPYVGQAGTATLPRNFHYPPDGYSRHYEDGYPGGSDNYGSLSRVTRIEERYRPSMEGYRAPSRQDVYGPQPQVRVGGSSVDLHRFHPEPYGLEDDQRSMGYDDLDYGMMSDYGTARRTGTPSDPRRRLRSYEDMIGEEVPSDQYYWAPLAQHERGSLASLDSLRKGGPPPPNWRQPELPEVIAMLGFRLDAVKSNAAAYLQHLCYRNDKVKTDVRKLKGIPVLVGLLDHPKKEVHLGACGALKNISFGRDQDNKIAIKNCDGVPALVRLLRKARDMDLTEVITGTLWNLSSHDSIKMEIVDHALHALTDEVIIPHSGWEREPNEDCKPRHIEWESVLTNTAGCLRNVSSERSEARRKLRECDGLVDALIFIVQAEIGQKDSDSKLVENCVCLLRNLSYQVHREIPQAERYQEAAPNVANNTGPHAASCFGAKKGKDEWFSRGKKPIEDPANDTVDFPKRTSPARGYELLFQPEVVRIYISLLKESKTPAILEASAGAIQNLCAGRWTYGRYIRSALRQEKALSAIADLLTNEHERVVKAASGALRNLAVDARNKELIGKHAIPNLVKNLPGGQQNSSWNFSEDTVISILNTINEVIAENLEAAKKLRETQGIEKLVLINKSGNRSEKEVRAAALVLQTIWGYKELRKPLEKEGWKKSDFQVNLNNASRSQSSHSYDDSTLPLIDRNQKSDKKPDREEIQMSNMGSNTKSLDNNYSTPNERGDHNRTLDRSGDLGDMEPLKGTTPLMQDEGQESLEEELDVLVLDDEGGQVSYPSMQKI
The test can be described thus: co-IP; endogenous p120 immunoprecipitated with monoclonal p120 antibody from HCT116-NT and HCT116-KD cells in modified RIPA buffer; blots for VAV2, cortactin, p190 RhoGAP.

The target in test [2] is T2, GST–PTP-PEST-C231S fusion protein (catalytically inactive trapping mutant) (UniProt Q05209).
T2 sequence: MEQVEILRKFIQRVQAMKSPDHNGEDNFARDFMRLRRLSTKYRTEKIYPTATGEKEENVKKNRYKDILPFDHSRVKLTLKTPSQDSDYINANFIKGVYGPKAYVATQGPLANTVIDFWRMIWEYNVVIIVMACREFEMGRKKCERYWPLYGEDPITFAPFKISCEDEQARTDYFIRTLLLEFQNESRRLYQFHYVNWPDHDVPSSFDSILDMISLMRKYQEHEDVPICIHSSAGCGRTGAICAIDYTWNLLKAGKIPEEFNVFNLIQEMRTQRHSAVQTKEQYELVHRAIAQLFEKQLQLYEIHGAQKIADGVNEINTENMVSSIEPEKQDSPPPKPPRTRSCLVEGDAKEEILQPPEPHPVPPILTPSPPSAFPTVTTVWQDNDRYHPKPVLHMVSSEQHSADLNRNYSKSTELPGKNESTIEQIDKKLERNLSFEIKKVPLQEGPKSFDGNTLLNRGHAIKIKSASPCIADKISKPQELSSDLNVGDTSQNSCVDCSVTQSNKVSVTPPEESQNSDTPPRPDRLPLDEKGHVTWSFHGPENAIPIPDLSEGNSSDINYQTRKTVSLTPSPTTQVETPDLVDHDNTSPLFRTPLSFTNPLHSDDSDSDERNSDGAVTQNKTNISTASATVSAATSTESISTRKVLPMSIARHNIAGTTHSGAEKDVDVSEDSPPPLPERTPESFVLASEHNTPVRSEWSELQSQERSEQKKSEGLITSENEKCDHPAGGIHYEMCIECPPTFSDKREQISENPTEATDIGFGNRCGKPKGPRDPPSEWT
The test can be described thus: pull-down; substrate trapping: 10 µg GST fusion protein with 1 mg lysate of pervanadate-treated transfected cells (HEK 293T named for Fig. 1B and 6B), modified RIPA buffer, 4°C, 1 hour; western blot with anti-YFP; only the target purified.

These are yes or no findings as the source states them, for the method shown. Binding seen in cells or lysates may run through a third protein. Some binding calls cover weakened binding; strength is not graded here. For some of these results: Tags and fused reporters may be left off the sequences shown.

B1: VAV2, endogenous (HCT116 cells) (protein, UniProt P52735 1-878)
chain: MEQWRQCGRWLIDCKVLPPNHRVVWPSAVVFDLAQALRDGVLLCQLLHNLSPGSIDLKDINFRPQMSQFLCLKNIRTFLKVCHDKFGLRNSELFDPFDLFDVRDFGKVISAVSRLSLHSIAQNKGIRPFPSEETTENDDDVYRSLEELADEHDLGEDIYDCVPCEDGGDDIYEDIIKVEVQQPMIRYMQKMGMTEDDKRNCCLLEIQETEAKYYRTLEDIEKNYMSPLRLVLSPADMAAVFINLEDLIKVHHSFLRAIDVSVMVGGSTLAKVFLDFKERLLIYGEYCSHMEHAQNTLNQLLASREDFRQKVEECTLKVQDGKFKLQDLLVVPMQRVLKYHLLLKELLSHSAERPERQQLKEALEAMQDLAMYINEVKRDKETLRKISEFQSSIENLQVKLEEFGRPKIDGELKVRSIVNHTKQDRYLFLFDKVVIVCKRKGYSYELKEIIELLFHKMTDDPMNNKDVKKSHGKMWSYGFYLIHLQGKQGFQFFCKTEDMKRKWMEQFEMAMSNIKPDKANANHHSFQMYTFDKTTNCKACKMFLRGTFYQGYMCTKCGVGAHKECLEVIPPCKFTSPADLDASGAGPGPKMVAMQNYHGNPAPPGKPVLTFQTGDVLELLRGDPESPWWEGRLVQTRKSGYFPSSSVKPCPVDGRPPISRPPSREIDYTAYPWFAGNMERQQTDNLLKSHASGTYLIRERPAEAERFAISIKFNDEVKHIKVVEKDNWIHITEAKKFDSLLELVEYYQCHSLKESFKQLDTTLKYPYKSRERSASRASSRSPASCASYNFSFLSPQGLSFASQGPSAPFWSVFTPRVIGTAVARYNFAARDMRELSLREGDVVRIYSRIGGDQGWWKGETNGRIGWFPSTYVEEEGIQ
For the molecule B1, the binding result in test [1] is on record as “binds”.

B2: p120-Y8F (p120-1A with eight tyrosines changed to phenylalanine) (protein, UniProt P30999 1-938)
chain: MDDSEVESTASILASVKEQEAQFEKLTRALEEERRHVSAQLERVRVSPQDANSLMANGTLTRRHQNGRFVGDADLERQKFSDLKLNGPQDHNHLLFSTIPRMQEPGQIVETFTEEDPEGAMSVVSVETTDDGTTRRTETTVKKVVKTMTTRTVQPVPMGPDGLPVDASAVSNNYIQTLGRDFRKNGNGGPGPYVGQAGTATLPRNFHYPPDGYGRHYEDGYPGGSDNFGSLSRVTRIEERYRPSMEGYRAPSRQDVFGPQPQVRVGGSSVDLHRFHPEPFGLEDDQRSMGFDDLDFGMMSDFGTARRTGTPSDPRRRLRSYEDMIGEEVPPDQYYWAPLAQHERGSLASLDSLRKGMPPPSNWRQPELPEVIAMLGFRLDAVKSNAAAYLQHLCYRNDKVKTDVRKLKGIPILVGLLDHPKKEVHLGACGALKNISFGRDQDNKIAIKNCDGVPALVRLLRKARDMDLTEVITGTLWNLSSHDSIKMEIVDHALHALTDEVIIPHSGWEREPNEDCKPRHIEWESVLTNTAGCLRNVSSERSEARRKLRECDGLVDALIFIVQAEIGQKDSDSKLVENCVCLLRNLSYQVHREIPQAERYQEALPTVANSTGPHAASCFGAKKGKDEWFSRGKKPTEDPANDTVDFPKRTSPARGYELLFQPEVVRIYISLLKESKTPAILEASAGAIQNLCAGRWTYGRYIRSALRQEKALSAIAELLTSEHERVVKAASGALRNLAVDARNKELIGKHAIPNLVKNLPGGQQNSSWNFSEDTVVSILNTINEVIAENLEAAKKLRETQGIEKLVLINKSGNRSEKEVRAAALVLQTIWGYKELRKPLEKEGWKKSDFQVNLNNASRSQSSHSYDDSTLPLIDRNQKSDKKPDREEIPMSNMGSNTKSLDNNYSTLNERGDHNRTLDRSGDLGDMEPLKGAPLMQKI
Take B2: the binding entry in test [2] is “binds”.

B3: YFP–p120-1A Y334F (protein, UniProt P30999 1-938)
chain: MDDSEVESTASILASVKEQEAQFEKLTRALEEERRHVSAQLERVRVSPQDANSLMANGTLTRRHQNGRFVGDADLERQKFSDLKLNGPQDHNHLLYSTIPRMQEPGQIVETYTEEDPEGAMSVVSVETTDDGTTRRTETTVKKVVKTMTTRTVQPVPMGPDGLPVDASAVSNNYIQTLGRDFRKNGNGGPGPYVGQAGTATLPRNFHYPPDGYGRHYEDGYPGGSDNYGSLSRVTRIEERYRPSMEGYRAPSRQDVYGPQPQVRVGGSSVDLHRFHPEPYGLEDDQRSMGYDDLDYGMMSDYGTARRTGTPSDPRRRLRSYEDMIGEEVPPDQFYWAPLAQHERGSLASLDSLRKGMPPPSNWRQPELPEVIAMLGFRLDAVKSNAAAYLQHLCYRNDKVKTDVRKLKGIPILVGLLDHPKKEVHLGACGALKNISFGRDQDNKIAIKNCDGVPALVRLLRKARDMDLTEVITGTLWNLSSHDSIKMEIVDHALHALTDEVIIPHSGWEREPNEDCKPRHIEWESVLTNTAGCLRNVSSERSEARRKLRECDGLVDALIFIVQAEIGQKDSDSKLVENCVCLLRNLSYQVHREIPQAERYQEALPTVANSTGPHAASCFGAKKGKDEWFSRGKKPTEDPANDTVDFPKRTSPARGYELLFQPEVVRIYISLLKESKTPAILEASAGAIQNLCAGRWTYGRYIRSALRQEKALSAIAELLTSEHERVVKAASGALRNLAVDARNKELIGKHAIPNLVKNLPGGQQNSSWNFSEDTVVSILNTINEVIAENLEAAKKLRETQGIEKLVLINKSGNRSEKEVRAAALVLQTIWGYKELRKPLEKEGWKKSDFQVNLNNASRSQSSHSYDDSTLPLIDRNQKSDKKPDREEIPMSNMGSNTKSLDNNYSTLNERGDHNRTLDRSGDLGDMEPLKGAPLMQKI
Consider B3, for which the binding result in test [2] is “binds”.

B4: YFP–p120-1A Y217F (protein, UniProt P30999 1-938)
chain: MDDSEVESTASILASVKEQEAQFEKLTRALEEERRHVSAQLERVRVSPQDANSLMANGTLTRRHQNGRFVGDADLERQKFSDLKLNGPQDHNHLLYSTIPRMQEPGQIVETYTEEDPEGAMSVVSVETTDDGTTRRTETTVKKVVKTMTTRTVQPVPMGPDGLPVDASAVSNNYIQTLGRDFRKNGNGGPGPYVGQAGTATLPRNFHYPPDGYGRHFEDGYPGGSDNYGSLSRVTRIEERYRPSMEGYRAPSRQDVYGPQPQVRVGGSSVDLHRFHPEPYGLEDDQRSMGYDDLDYGMMSDYGTARRTGTPSDPRRRLRSYEDMIGEEVPPDQYYWAPLAQHERGSLASLDSLRKGMPPPSNWRQPELPEVIAMLGFRLDAVKSNAAAYLQHLCYRNDKVKTDVRKLKGIPILVGLLDHPKKEVHLGACGALKNISFGRDQDNKIAIKNCDGVPALVRLLRKARDMDLTEVITGTLWNLSSHDSIKMEIVDHALHALTDEVIIPHSGWEREPNEDCKPRHIEWESVLTNTAGCLRNVSSERSEARRKLRECDGLVDALIFIVQAEIGQKDSDSKLVENCVCLLRNLSYQVHREIPQAERYQEALPTVANSTGPHAASCFGAKKGKDEWFSRGKKPTEDPANDTVDFPKRTSPARGYELLFQPEVVRIYISLLKESKTPAILEASAGAIQNLCAGRWTYGRYIRSALRQEKALSAIAELLTSEHERVVKAASGALRNLAVDARNKELIGKHAIPNLVKNLPGGQQNSSWNFSEDTVVSILNTINEVIAENLEAAKKLRETQGIEKLVLINKSGNRSEKEVRAAALVLQTIWGYKELRKPLEKEGWKKSDFQVNLNNASRSQSSHSYDDSTLPLIDRNQKSDKKPDREEIPMSNMGSNTKSLDNNYSTLNERGDHNRTLDRSGDLGDMEPLKGAPLMQKI
For the molecule B4, the binding result in test [2] is given as “binds”.
